Results taken from PubChem BioAssay.
Inconclusive results, whose numbers are uncertain, are shown with a selection of clear calls. Calls of active or inactive are those of the source.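 How the source made its calls: active means thallium flux slope above the same plate's solvent-control mean plus 3 SD in both duplicate wells; inconclusive means duplicate wells that disagreed; inactive means the rest.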

experiment: native HEK Tl+ uptake effects, second counter-screen – HEK cells, counterscreen 2, counter-screen for KCC2 modulator project, confirmation (AID 1718); details: HEK293 parental, thallium flux FluoZin-2 fluorescence slope; at 10 µM;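 further: run without ouabain in cells lacking the KCC2 cotransporter; slope of fluorescence scaled to its starting value between 10 and 20 s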
Outline: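 Material: parental HEK cells. Medium: HBSS, 20 mM HEPES. Reagent: thallium sulfate stimulus, 12 mM in buffer, pH 7.3. Incubation: overnight cell culture at 37 °C, 48 min dye loading, compound before thallium. Signal: FluoZin-2 fluorescence kinetics. Read-out basis: thallium influx rate. Repeats: Per-replicate slope values.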

Compound | thallium flux slope
Cc1c(Cl)c([N+](=O)[O-])nn1CCCC(=O)N1CCN(c2ccccc2)CC1 | inconclusive: 0.0111
O=C1c2ccccc2C(=O)N1Cc1cccnc1 | inconclusive: 0.00967
CCOc1ccc(NC(=O)CSc2nnc(CCNC(=O)c3ccc(OC)cc3)n2CC)cc1 | inconclusive: 0.0112
Fc1c(F)c(F)c(/C=N/NC(=S)Nc2cccnc2)c(F)c1F | inconclusive: 0.012
Cc1ccccc1Nc1nnc(SCc2cc(=O)n3ccsc3n2)s1 | inactive: 0.00992
CC1Cc2ccccc2N1C(=O)COC(=O)c1cccnc1Cl (stereo not given) | inconclusive: 0.0099
C=C(C)c1cccc(C(C)(C)NC(=O)N2CCC(C(N)=O)CC2)c1 | inactive: 0.0117
O=c1oc2ccccc2c(Nc2ccc(F)cc2)c1[N+](=O)[O-] | inconclusive: 0.00924
COC(=O)C(NS(C)(=O)=O)(c1c(C)[nH]c2ccccc12)C(F)(F)F (stereo not given) | inactive: 0.0107
CC1CC(=O)c2cnc(Nc3cccc(C(F)(F)F)c3)nc2C1 (stereo not given) | inactive: 0.0106
Cc1cc(C)c(NC(=O)NC(=O)c2cccc(F)c2)c(C)n1 | inconclusive: 0.0102
COc1ccccc1-c1nnc2sc(COc3ccccc3)nn12 | inconclusive: 0.00937
COc1ccc(CCNc2oc(COc3ccccc3F)nc2C#N)cc1OC | inconclusive: 0.00993
Cc1ccc(/C=C2\SC(=S)N(c3c(C)n(C)n(-c4ccccc4)c3=O)C2=O)cc1 | inactive: 0.012
COc1cccc(/C=c2\s/c(=C/C(=O)c3ccc(C)cc3)[nH]c2=O)c1OC | inconclusive: 0.0129
